Results published in PubChem BioAssay AID1460 (National Center for Advancing Translational Sciences (NCATS), 2008).
Several values for one entry are separate records, joined by “and”; a condition that tells them apart may be missing. Equal values may be shown once. Among all 270,000 compounds or so, about 5,800 (2.1%) were called active. Inconclusive results, whose numbers are uncertain, are shown with a selection of clear calls. Calls come from the whole dose curve; as a rule, active = well fitted inhibition curve with a large enough effect; inconclusive = small, poorly fitted or top-dose-only effect; inactive = flat fitted curve, though single readings scatter. Potencies of inconclusive entries are doubtful fits and often do not repeat.

These compounds were tested against Microtubule-associated protein tau (Homo sapiens) (UniProt P10636) (assay: qHTS for Inhibitors of Tau Fibril Formation, Thioflavin T Binding). Conditions: recombinant tau K18 P301L (four-repeat tau fragment), heparin-induced fibrillization, ThT fluorescence; series mostly up to 57.4 µM.
Summary of the method: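 Heparin-induced fibrillization of the P301L-mutant K18 repeat-domain fragment of human tau was followed by ThT binding in quantitative high-throughput format.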
Note: nearly all actives have a fitted effect of over 55% in size.
Potency is the fitted concentration of half-maximal effect; tags give direction and shape of the fitted curve.

Chain of UniProt P10636 (P10636 whole entry, looked up, the tested form may be a part): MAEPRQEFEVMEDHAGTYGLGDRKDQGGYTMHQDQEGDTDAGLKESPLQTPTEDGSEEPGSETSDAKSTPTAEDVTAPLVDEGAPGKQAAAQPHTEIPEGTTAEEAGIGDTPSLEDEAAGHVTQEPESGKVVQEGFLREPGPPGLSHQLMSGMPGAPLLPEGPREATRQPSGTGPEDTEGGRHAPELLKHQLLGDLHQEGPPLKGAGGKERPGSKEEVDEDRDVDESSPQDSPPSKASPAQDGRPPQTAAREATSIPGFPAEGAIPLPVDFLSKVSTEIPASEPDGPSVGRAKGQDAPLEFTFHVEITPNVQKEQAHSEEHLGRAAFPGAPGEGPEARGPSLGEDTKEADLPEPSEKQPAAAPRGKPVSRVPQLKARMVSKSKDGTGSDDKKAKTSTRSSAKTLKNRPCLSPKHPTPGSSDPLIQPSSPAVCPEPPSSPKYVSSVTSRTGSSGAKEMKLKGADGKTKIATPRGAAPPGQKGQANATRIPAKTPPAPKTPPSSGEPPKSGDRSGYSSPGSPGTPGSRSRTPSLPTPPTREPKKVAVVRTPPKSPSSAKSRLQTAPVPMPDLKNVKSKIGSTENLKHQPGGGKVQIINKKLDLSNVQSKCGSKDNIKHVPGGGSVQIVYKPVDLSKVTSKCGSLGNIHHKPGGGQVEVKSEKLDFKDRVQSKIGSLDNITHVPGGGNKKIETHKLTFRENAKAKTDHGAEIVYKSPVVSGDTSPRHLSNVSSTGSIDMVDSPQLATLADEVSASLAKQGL

Row | Structure (SMILES) | Potency
1 | C=CCc1cc(C=C2C(=O)N(C)C(=O)N(C)C2=O)cc(OCC)c1OCc1ccccc1 | active: 25.1 µM
2 | CC(C)c1cccc(O)c(=O)c1 | inconclusive: 31.6 µM [inhibitor, single point] and inconclusive: 15.8 µM [inhibitor, partial curve, poor fit] and inconclusive: 15.8 µM [inhibitor, single point]
3 | N#CC(C#N)=Cc1ccc(-c2ccccc2)o1 | inconclusive: 3.16 µM [inhibitor, full curve]
4 | CCCC(c1nnnn1Cc1cccs1)N1CCN(c2nc3ccccc3s2)CC1 (stereo unspecified) | inconclusive: 5.62 µM [inhibitor, partial curve]
5 | CC1(C)OC(c2ccccc2)=C/C(=C/C=C2C(=O)NC(=O)NC2=O)O1 | inconclusive: 7.08 µM [inhibitor, partial curve]
6 | COc1ccc(CN2C(=O)CC(=O)NC2=O)cc1 | active: 25.1 µM
7 | CN1C(=O)C(=Cc2ccccc2OCc2ccc(Cl)cc2)C(=O)N(C)C1=O | inconclusive: 12.6 µM [inhibitor, partial curve]
8 | CC1=NN(c2ccccc2)C(=O)C1/C=C1/C(=O)NC(=O)N(c2cccc(C)c2)C1=O (stereo unspecified) | inconclusive: 10 µM [inhibitor, partial curve]
9 | O=C1NC(=O)N(Cc2ccccc2)C(=O)/C1=C/N1CCCc2ccccc21 | active: 10 µM
10 | C=CC(C)(C)c1c2c(c(O)c3c(=O)c4ccc(O)c(O)c4oc13)C=CC(C)(C)O2 | inconclusive: 22.4 µM [inhibitor, partial curve]
11 | Cc1cc(/C=C2/C(=O)NC(=O)N(Cc3ccco3)C2=O)c(C)n1-c1ccccc1O | inconclusive: 28.2 µM [inhibitor, partial curve]
12 | CCCCC/C=C\C/C=C\C/C=C\C/C=C\CCCCCC(=O)NCCO | inactive and inconclusive: 39.8 µM [inhibitor, single point]
13 | CN1C(=O)C(=Cc2sc(=O)n(-c3ccccc3)c2N2CCCCC2)C(=O)N(C)C1=O | active: 25.1 µM
14 | CCN1C(=O)/C(=C\c2ccc([N+](=O)[O-])s2)C(=O)NC1=S | active: 3.55 µM
15 | C=C(C=O)C[C@@H]1C[C@H](O)C2OC3C[C@]4(C)OC5/C=C\CC6OC7C(CC=CCC6OC5CCCC4OC3CC2O1)OC1CC2OC3CC(=O)OC3C[C@@H](C)C[C@@]2(C)OC1C[C@@H]7C (stereo partly specified) | active: 3.55 µM
16 | Cc1ccc(-n2c(O)c(/C=N/NC(=O)c3ccncc3)c(=O)[nH]c2=O)cc1C | inconclusive: 28.2 µM [inhibitor, partial curve, poor fit]
17 | O=Cc1cn(Cc2c(F)cccc2Cl)c2ccccc12 | inactive
18 | O=C(COc1ccccc1Cl)Nc1ccc2nc(SCC(=O)N3CCCC3)sc2c1 | inconclusive: 3.16 µM [inhibitor, partial curve]
19 | Cc1cc([P+](=O)O)c(C)n1-c1ccc(Br)cc1 | inconclusive: 3.98 µM [inhibitor, full curve, poor fit]
20 | NC[C@H](CC(=O)O)c1ccc(Cl)cc1 | inactive
21 | CCCn1nc2ccccc2c1P(=O)(N1CCOCC1)N1CCOCC1 | inactive

Row | Structure (SMILES) | Potency
22 | O=C(Nc1ccccc1)c1cc([N+](=O)[O-])ccc1N1CCNCC1 | inactive
23 | Nc1ccc(Br)cc1C(=O)c1ccccc1 | inactive
24 | Cc1ccc(/C=C2/C(=O)NC(=O)N(CC3CCCO3)C2=O)s1 (stereo unspecified) | inconclusive: 0.316 µM [inhibitor, full curve]
25 | CN1CC(C(=O)c2ccc(Cl)cc2)C(c2ccc(N(C)C)cc2)C1 (stereo unspecified) | inactive
26 | CC(C)[C@]12O[C@H]1[C@@H]1O[C@]13[C@]1(O[C@H]1C[C@H]1C4=C(CC[C@@]13C)C(=O)OC4)[C@@H]2O | inactive
27 | C/C(=N\NC(=O)c1ccccc1O)c1c(O)n(Cc2ccccc2)c(=O)[nH]c1=O | active: 14.1 µM
28 | c1ccc(CNCCc2ccc3c(c2)OCO3)nc1 | inactive
29 | CC1=CC(=Cc2sc3ccccc3[n+]2C)C=C(C)O1 | active: 15.8 µM
30 | O=C1OC(c2ccc(O)c(S(=O)(=O)O)c2)(c2ccc(O)c(S(=O)(=O)O)c2)c2c(Br)c(Br)c(Br)c(Br)c21 | inconclusive: 35.5 µM [inhibitor, single point]
31 | O=C(/C=C/c1c[nH]c2ccccc12)c1c(O)n(CCc2ccccc2)c(=O)[nH]c1=O | inconclusive: 1.26 µM [activator, full curve]
32 | COc1ccc(C(=O)CC2C(=O)N(C)C(=O)N(C)C2=O)cc1 | inconclusive: 20 µM [inhibitor, partial curve]
33 | CCCCCc1cc(O)c2c(c1)OC(C)(C)[C@@H]1CCC(C(=O)O)=C[C@H]21 | inactive
34 | CC(=O)[C@@]1(O)CC[C@H]2[C@@H]3CCC4=CC(=O)CC[C@]4(C)[C@H]3CC[C@@]21C | inconclusive: 12.6 µM [inhibitor, partial curve, poor fit]
35 | CCn1c(O)c(N=Nc2cccc(S(=O)(=O)N3CCOCC3)c2)c(=O)n(CC)c1=S | inconclusive: 8.91 µM [inhibitor, partial curve]
36 | CC1=NN(c2ccccc2)C(=O)C1/C=C1\C(=O)NC(=O)N(c2cc(C)cc(C)c2)C1=O (stereo unspecified) | inactive
37 | COCCOC(=O)C1=C(N)OC(C)=C(C(=O)OC)C12C(=O)Nc1ccccc12 (stereo unspecified) | inconclusive: 15.8 µM [inhibitor, partial curve, poor fit]
38 | CN(C(=O)Cc1ccc(Cl)c(Cl)c1)C(CN1CCCC1)c1cccc(N=C=S)c1 (stereo unspecified) | inconclusive: 20 µM [inhibitor, partial curve]
39 | O=c1[nH]c(O)c(C=NC2CCN(Cc3ccccc3)CC2)c(=O)[nH]1 | inconclusive: 22.4 µM [inhibitor, single point]
40 | CC(C)c1ccc(CNC(=O)c2ccc(N3CCCC3)c(NC(=O)NCc3ccccc3)c2)cc1 | inconclusive: 15.8 µM [inhibitor, partial curve, poor fit]
41 | CC(=O)c1ccc(-c2ccc(Cn3c(C)nc4cc(N)c(C)nc43)cc2)cc1 | inconclusive: 12.6 µM [inhibitor, partial curve]
